Nonsense suppression data for 27 variants are collected here from the RNAGym collection of RNA variant scans (doi:10.1101/gad.245936.114).

B1: tRNA (parent)
chain: CUCUCGGUAGCCAAGUUGGUUUAAGGCGCAAGACUUUAAUUUAUCACUACGAAAUCUUGAGAUCGGGCGUUCGACUCGCCCCCGGGAGAUUUUUUCCUCGAGCAA

Variants at the floor of the assay are shown more often than the library holds them.

Variants of B1 are the subject of the series. Put plainly: nonsense suppression (GFP-seq) (ratio to wild type); higher = more function; SUP4oc tRNA, yeast GFP reporter sort-seq. In outline: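 Yeast were grown in raffinose/galactose medium with 80 mg/L adenine, each strain bearing a genome-integrated ochre-suppressor tRNA variant from a ~3% random-mutation library, a galactose-driven GFP ochre reporter, and RFP. After sorting into GFP/RFP bins, every bin was sequenced on an Illumina platform at phred ≥30. The GFPSEQ value, a measure of nonsense suppression, is the weighted bin median GFP/RFP relative to the unmutated parent tRNA, using each variant's estimated cell share per bin as the weight. Only variants with ≥100 reads and ≥30 cells were included.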
On to CUCUCGCUAGCCAAGUUGGUUUAAGGCGCAAGACUUUAAUUUAUCACUACGAAAUCUUGAGGUCGGGCGUACGACUCGCCCCCGGGAGAUUUUUUCCUCGAGCAA [G7C A62G U71A], for which the nonsense suppression was at most 0.026.
Consider CUCUCGAUAGCCAAGUUGUUUUAAGGCGCAAGACUUUAAUUUAUCACUACGAAAUCUUGAGAUCGGGCGUUCGACUCGCCCCCGGGAGAUUUUUUCCUCGAGCAA [G7A G19U], for which the nonsense suppression was at most 0.026.
Take CUCUCGGAAGCCAAGUUGGUUUAAGGCGCAAGACUUUAAUUUAUCACUACGAAAGCUUGAGAUCGGGCGUUCGACUCGCCGCCGGGAGAUUUUUUCCUCGAGCAA [U8A U55G C81G]: the nonsense suppression was at most 0.026.
With CUCUCGGUAACCAAGUUGGUUUAAGGCGCAAGACUUUAAUUUAUCACUACGAAACCUUGGGAUCGGGCGUUCGACUCGCCCCCGGGAGAUUUUUUCCUCGAGCAA [G10A U55C A60G], the nonsense suppression was at most 0.026.
In the case of CUCUCGGUAGCCAAGUUGGUUUAAGGCACAAGGCUUUAAUUUAUCACUACGAAAUUUUGAGAUCGGGCGUUCGACUCGCCCCCGGGAGAUUUUUUCCUCGAGCAA [G28A A33G C56U], the nonsense suppression is at most 0.026.
With CUCUCGGUAGCCCAGUUGGUUUAAGGCGCAAGACUUUAAUUUAUCACUACGAAAUCUUGAGAUCGCGCGUUCGGCUCGCCCCUGGGAGAUUUUUUCCUCGAGCAA [A13C G66C A74G C83U], the nonsense suppression was at most 0.026.
To CUCUCGGUAGCCAAGUUGGUUUAAGGCGCAAUACUUUAAUUUAUCACUACGAAAUCUUGAGAUCGAGCGUUCGACUCGCCCCCGGGAGAUUUUUUCCUCGAGCAA [G32U G66A] belongs at most 0.026; to CUCUCGGUAGCCAAGUUGGCUUCAGGCGCAAGACUUUAAUUUAUCACUACGAACUCUCGAGAUCGGGCCUUCGACUCGCCCCCGGGAGAUUUUUUCCUCGAGCAA [U20C A23C A54C U58C G69C], at most 0.026.
With CUCUCGAUAGCCAAGUUGGAUUAAGGCGCAAGACUUUAAUUUAUCACUACGAAAUCUUGAGAUCGGGCGUUGGACUCGCCCCCGGGAGAUUUUUUCCUCGAGCAA [G7A U20A C72G], the nonsense suppression was at most 0.026.
CUCUCGGUAGCCAAGUUGGUUUAAGGUGCGAGACUUUAAUUUAUCACUACGAAAUCUUGGGAUCGGGCGUUCGACUCGCCCCCGGGAGAUUUUUUCCUCGAGCAA [C27U A30G A60G]: the nonsense suppression was at most 0.026.
For the variant CACUCGGUAGCCAAGUUGGUUUAAGGAGCAAGACUUUAAUUUAUCACUACGAAAUCUUGAGAUCGGGCGUUCGACCCGCCCCCGGGAGAUUUUUUCCUCGAGCAA [U2A C27A U76C], the nonsense suppression was at most 0.026.
In the case of CUCUCGGUAGCCAAGUUGGUUUAAGGCGCAAGAUUUUAAUUUAUCACUACGAAAUCAUGAGAUCGGGCGUUCGACUCGCCCCCGGGAGAUUUUUUCCUCGAGCAA [C34U U57A], the nonsense suppression is at most 0.026.
On to CUCUCGGUAGCCAAGUUGGUUUAAGGCGCAAGACUUUAAUUUAUCACUACGAAAUCUUGAGAUCGGGCGGACGACUCGCCCCCGGGAGAUUUUUUCCUCGAGCAA [U70G U71A], for which the nonsense suppression is at most 0.026.
Consider CUCUCGGUAGCCAAGUUGGUUUAAGGCGCAAGACUUUAAUUUAUCACUACGAAAUCUCGAGAUCCGGCGUUCGACUCGCCCCCGGGAGAUUUUUUCCUCGAGCAA [U58C G65C], for which the nonsense suppression was at most 0.026.
Turning to CUCUCGGUAGCCAAGUUGGUUUUAGGCGCAAGACUUUAAUUUAUCACUACGAAAUCUUGAGCUCGGGCGUUCGACUCGCCCCCGGGAGAUUUUUUCCUCGAGCAA [A23U A62C], the nonsense suppression was at most 0.026.
As for CUCGCGGUAGCCAACUUGGGUAAAGGCGCAAGACUUUAAUUUAUCACUACGAAAUCUUGAGAUCGGGCGUUCGACUCGCCCCAGGGAGAUUUUUUCCUCGAGCAA [U4G G15C U20G U22A C83A], the nonsense suppression was at most 0.026.
CUCUCUGUAGCAAAGUUGGUUUAAGGCGCAAGGCUUUAAUUUAUCACUACGAAAUCUUGAGAUCGGGCGUUCGACUCGCCCCCGGGAAAUUUUUUCCUCGAGCAA [G6U C12A A33G G88A]: the nonsense suppression is at most 0.026.
To CUCUCGGUAGCCAAGUUGGUUUAAGGCGAAAGACUUUAAUUUAUCACUACGAAAUCUUGAGAUCGUGCGUUCGACUCGCCCCCGGGAGAUUUUUUCCUCGAGCAA [C29A G66U] belongs at most 0.026; to CUCUCGGUAGCCAAGUUGGUUUAAGGCGCAAGACUUUAAUUUAUCACUACGAAAUCUUGAGAUCGGGCGUUCGAAUCGCCCCCGGGAGUUUUUUUCCUCGAGCAA [C75A A89U], at most 0.026; to CUCUCGGUAGCCAAGUUGGUUUAAGCCGCAAGACUUUAAUUUAUCACUACGAAAUCUUGCGAUCGGGCGUUCGACUCGCCCCCGGGAGAUUUUUUCCUCGAGCAA [G26C A60C], 0.027.
As for CUCGUGGUAGCCAAGUUGGUUUAAAGCGCAAGACUUUAAUUUAUCACUACGAAAACUUGAGAUCGGGCGUUCGACUCGCCCCCGGUAGAUUUUUUCCUCGAGCAA [U4G C5U G25A U55A G86U], the nonsense suppression was at most 0.026.
Turning to CUCUCGGUAGCCACGUUGGUUUAAGGCGCAAGCCUUUAAUUUAUCACUACGAAAACUUGAGAUCGGGCGUUCGACUCGCCCCCGGGAGAUUUUUUCCUCGAGCAA [A14C A33C U55A], the nonsense suppression was at most 0.026.
Under CUCUCGGUAGCCAAGUUGGUUUAAGGCGCUAGACUUUAAUUUAUCACUACGAAAUCUUGAGGUCGGGCGUUCGACUCCCCCCCGGGAGUUUUUUUCCUCGAGCAA [A30U A62G G78C A89U] stands at most 0.026; under CUCUCGGUAGCCAAGUUAGUUUAAGGCGCAAGGCUUUAAUUUAUCACUACGAAAUCUUGAGAUCGGGCGUUCGACUCGCUCCCGGCAGAUUUUUUCCUCGAGCAA [G18A A33G C80U G86C], at most 0.026.
Turning to CUCUCGGUAGCCAAGUUAGUUUAAGGCGCAAGACUUUAAUUUAUCACUACGAAAUCACGAGAUCGGGCAUUCGACUCGCCCCCGGGAGAUUUUUUCCUCGAGCAA [G18A U57A U58C G69A], the nonsense suppression is at most 0.026.
To CACUCGGUAGCCAAGUUGGUUUAAGGCGCAAAACUUUAAUUUAUCACUACGAAAUCUUGAGAUCGGGCGUUCGACUCGCCCCCGGGAGAUUUUUUCCUCGAGCAA [U2A G32A] belongs at most 0.026.
Under CUCUCGGUAGCCUAGUUGGUUUAAGGCGAAAGACUUUAAUUUAUCACUACGAAAUCUUGAGGUCGGGCGUUCGACUCGCCCCCGGGAGAUUUUUUCCUCGAGCAA [A13U C29A A62G] stands at most 0.026.
